# Data published in PubChem BioAssay AID504845 (National Center for Advancing Translational Sciences (NCATS), 2011).
# Among all 390,000 compounds or so, about 150 (0.038%) were called active. The shares of active, inactive and inconclusive entries below differ from those in the screen. Calls come from the whole dose curve; as a rule, active = well fitted inhibition curve with a large enough effect; inconclusive = small, poorly fitted or top-dose-only effect; inactive = no such curve, though single readings can be large or run the other way. Potencies beside an inconclusive call are fits to weak or partial responses and may not hold up.
# Target: Regulator of G-protein signaling 4 (Homo sapiens) (UniProt P49798)
# Test: Inhibitors of Regulator of G Protein Signaling (RGS) 4: qHTS; note: nearly all actives have a fitted effect of over 75% in size
# Settings: Transcreener GDP fluorescence polarization, RGS4-accelerated GTP hydrolysis; series mostly up to 114 µM
# In short: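 MLSMR compounds (23 nl, pin-transferred) preincubated 10 min at room temperature with a 500nM (2x) first reagent, then RGS4 at 900nM (2x) plus Transcreener GDP mix added; fluorescence polarization (620/688 nm) read before and after 90 min at 30 °C.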
# Potency is the fitted concentration of half-maximal effect; tags give direction and shape of the fitted curve.
# Chain of UniProt P49798 (P49798 whole entry, looked up): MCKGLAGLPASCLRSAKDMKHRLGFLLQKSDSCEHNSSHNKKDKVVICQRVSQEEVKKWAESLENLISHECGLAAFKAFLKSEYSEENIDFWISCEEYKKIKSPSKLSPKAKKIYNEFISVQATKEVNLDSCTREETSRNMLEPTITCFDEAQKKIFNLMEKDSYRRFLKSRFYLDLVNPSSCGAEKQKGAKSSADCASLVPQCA
row,SMILES,Potency
1,O=C1NCC(COc2cccc3ccccc23)O1 (stereo not drawn),"inconclusive: 31.6 µM [inhibitor, full curve, poor fit]"
2,COc1cc(C(=O)N/N=C(\C)c2ccc3c(c2)OCO3)cc(OC)c1OC,"inconclusive: 100 µM [inhibitor, partial curve, poor fit]"
3,CCOc1ccc2nc(NC3=NC(c4ccc(OC)cc4)CC(=O)N3)nc(C)c2c1 (stereo not drawn),"inconclusive: 39.8 µM [inhibitor, partial curve, poor fit]"
4,CCOC(=O)CSC1=NC(=O)/C(=C/c2ccc(OC)cc2)S1,"inconclusive: 20 µM [inhibitor, full curve, poor fit]"
5,COc1ccccc1C(=O)COC(=O)c1ccccc1O,inactive
6,CC(C)c1ccc(C2CC(=O)N3CN(C4CCCCC4)CSC3=C2C#N)cc1 (stereo not drawn),"inconclusive: 31.6 µM [inhibitor, full curve, poor fit]"
7,CCOC(=O)c1ccccc1OCc1cc(C2Nc3ccccc3C(=O)N2c2cccc3ccccc23)ccc1OC (stereo not drawn),inactive
8,CCN(C(=O)Cn1c(C(=O)OC)cc2sccc21)c1cccc(C)c1,inactive
9,OCC1OC(n2cnc3c(=S)nc[nH]c32)C(O)C1O (stereo not drawn),"inconclusive: 79.4 µM [inhibitor, partial curve, poor fit]"
10,CCNC(=S)N/N=C(\C)c1cccc(C(F)(F)F)c1,inactive
11,O=c1c2ccccc2nc(SCc2ccc([N+](=O)[O-])cc2)n1CCCO,inactive
12,O=C(CC(c1ccccc1)C1CCCCC1=O)c1ccco1 (stereo not drawn),inactive
13,CCCCC12CN3CC(C)(CN(C1)C3c1ccc(OCc3ccccc3)cc1)C2=O (stereo not drawn),inactive
14,COc1ccccc1-n1c(-c2cc(-c3ccc(F)cc3)n[nH]2)n[nH]c1=S,"inconclusive: 89.1 µM [inhibitor, single point]"
15,Cc1cccc(C(=O)n2c(=S)nc3cc(C)ccn32)c1,"inconclusive: 50.1 µM [inhibitor, partial curve, poor fit]"
16,CC(=O)OCCN(C)c1cc(SC(C)C)c2nonc2c1[N+](=O)[O-],inactive
17,CC(=O)N(C)c1ccc(N=Cc2c(O)ccc3ccccc23)cc1,"inconclusive: 44.7 µM [inhibitor, partial curve, poor fit]"
18,COc1ccc(C(=O)CCN2CCCC(C)C2)cc1 (stereo not drawn),"inconclusive: 79.4 µM [inhibitor, partial curve, poor fit]"
19,CN(C(=O)c1cccc(NC(=O)Cc2ccc(NC(=O)C3CCCN(C(=O)CCc4ccccc4)C3)cc2)c1)C1CCCC1 (stereo not drawn),inactive
20,O=C(N/N=C/c1ccccc1[N+](=O)[O-])c1ccc2c(c1)OCCO2,inactive
21,CCN(CC(=O)Nc1c(F)cccc1F)C(=O)/C=C/c1ccc2ccccc2n1,"inconclusive: 79.4 µM [inhibitor, partial curve, poor fit]"
22,O=C(Cn1nc(-c2ccccc2)c2c(c1=O)CCCC2)Nc1ccc(F)c(Cl)c1,inactive
23,CC1(C)CC(=O)/C(=C(/O)Cc2ccccc2)C(=NCCc2ccccc2)C1,"inconclusive: 79.4 µM [inhibitor, partial curve, poor fit]"

row,SMILES,Potency
1,O=C(NCCN1CCN(c2ccccc2)CC1)C1(S(=O)(=O)c2ccc(Cl)cc2)CC1,inactive
2,Cc1nc2ccc(S(=O)(=O)NC(C(=O)N3CCCC3)C(C)C)cc2s1 (stereo not drawn),"inconclusive: 70.8 µM [inhibitor, partial curve, poor fit]"
3,[O-]/[N+](=C\c1ccncc1)c1ccc(Br)cc1,"inconclusive: 79.4 µM [inhibitor, partial curve, poor fit]"
4,Oc1c(Cl)cc(Cl)cc1/C=N/c1nccs1,"inconclusive: 28.2 µM [inhibitor, full curve, poor fit]"
5,Cc1ccc(/C=N/Nc2ccc(F)cc2F)s1,inactive
6,CCOc1ccc(C(=O)Nc2ccc(CN3CCOCC3)cc2)cc1Br,"inconclusive: 100 µM [inhibitor, single point]"
7,Cc1ccc(/C=N/NC(=O)CSc2nc3ccccc3o2)cc1,"inconclusive: 50.1 µM [inhibitor, partial curve, poor fit]"
8,Cc1ccc(NC(=O)c2c(NC(=O)c3ccc(F)cc3)sc3c2CCCC3)cc1C,"inconclusive: 44.7 µM [inhibitor, partial curve, poor fit]"
9,CCCOc1ccc([N+](=O)[O-])cc1C1NC(=S)NC(c2ccccc2)=C1C(=O)OCC (stereo not drawn),"inconclusive: 100 µM [inhibitor, partial curve, poor fit]"
10,CC(=O)c1ccc(OCCCC(=O)n2nnc3ccccc32)cc1,"inconclusive: 79.4 µM [inhibitor, partial curve, poor fit]"
11,Cc1ccc(Nc2ccc3cc(S(=O)(=O)N4CCCCC4)ccc3n2)cc1F,inactive
12,O=[N+]([O-])c1ccc2[nH]c(=S)sc2c1,"inconclusive: 79.4 µM [inhibitor, partial curve, poor fit]"
13,COCC(=O)N(C)CC1CCCN(CCc2ccccc2OC)C1 (stereo not drawn),inactive
14,CC(C)C(=O)N1CCN(c2c(Cl)cccc2[N+](=O)[O-])CC1,"inconclusive: 89.1 µM [inhibitor, single point]"
15,CCOC(=O)c1nnn(CC(=O)Nc2cccc(F)c2)c1C(=O)OCC,"inconclusive: 89.1 µM [inhibitor, single point]"
16,CC(=O)Nc1nc(-c2ccc3c(c2)CCN3C(=O)C2CC2)c(C)s1,inactive
17,CNC(C)C#Cc1ccc2oc3cccc(OC)c3c(=O)c2c1 (stereo not drawn),inactive
18,O=C1/C(=C/c2ccsc2)CC/C1=C\c1cccs1,"inconclusive: 26.7 µM [inhibitor, single point]"
19,Cc1ccc(NC(=O)c2cc(N3C(=O)C=CC3=O)ccc2N2CCOCC2)cc1,"inconclusive: 20 µM [inhibitor, full curve, poor fit]"
20,CC(=O)OCCCNc1cc(SCc2ccco2)c2nonc2c1[N+](=O)[O-],"inconclusive: 35.5 µM [inhibitor, partial curve, poor fit]"
21,CCOc1ccc(NC(=O)c2c(NCc3ccc(C)o3)sc3c2CCCCC3)cc1,"inconclusive: 79.4 µM [inhibitor, partial curve, poor fit]"
22,CCOc1ccc(N(CC(=O)N2CCN(c3ccccc3)CC2)S(=O)(=O)c2c(C)noc2C)cc1,"inconclusive: 50.1 µM [inhibitor, partial curve, poor fit]"
23,Cc1ccc(-n2c(SCC(=O)Nc3ccc4cn[nH]c4c3)nnc2-c2ccco2)cc1,inactive

row,SMILES,Potency
1,O=C(c1ccccc1)c1cn(Cc2ccc(F)cc2)c2ccccc2c1=O,inactive
2,Cc1cnc(NC(=O)CCCc2nc3ccccc3s2)s1,"inconclusive: 17.8 µM [inhibitor, full curve, poor fit]"
3,Cc1ccc(C(=O)N/N=C/c2ccc(-c3ccccc3[N+](=O)[O-])o2)cn1,"inconclusive: 28.2 µM [inhibitor, full curve, poor fit]"
4,COc1ccc(S(=O)(=O)Nc2cc(Sc3ncn[nH]3)c(O)c3ccccc23)cc1,"inconclusive: 17.8 µM [inhibitor, full curve, poor fit]"
5,COc1ccc(/C=N/Nc2ccc(C(=O)O)cc2)cc1OC,inactive
6,COc1cc(COCC(O)CN2C(C)CCCC2C)cc(OC)c1OC (stereo not drawn),"inconclusive: 79.4 µM [inhibitor, partial curve, poor fit]"
7,CCC(C)n1c(C)cc(=O)n1C(C)CC (stereo not drawn),"inconclusive: 100 µM [inhibitor, single point]"
8,CCNC(=O)/C(C#N)=C/c1c(N(Cc2ccccc2)Cc2ccccc2)nc2ccccn2c1=O,inactive
9,NS(=O)(=O)c1ccc(CNC(=O)CCCSc2ccccc2)cc1,"inconclusive: 79.4 µM [inhibitor, partial curve, poor fit]"
10,CC(=O)Nc1nc(C)c(-c2csc(Nc3ccc(O)cc3)n2)s1,"inconclusive: 100 µM [inhibitor, partial curve, poor fit]"
11,COC(=O)c1cccc(NC(=S)NCc2ccco2)c1,"inconclusive: 56.2 µM [inhibitor, partial curve, poor fit]"
12,COc1ccc(NC(=O)c2cc(S(=O)(=O)N(Cc3ccccc3)c3ccccc3)ccc2Cl)cn1,inactive
13,Cc1nnc(SCC(=O)Nc2sc3c(c2C#N)CCCC3)[nH]c1=O,"inconclusive: 89.1 µM [inhibitor, single point]"
14,CCCCn1cnc2c(SCc3ccc([N+](=O)[O-])cc3)nc(N)nc21,inactive
15,COc1ccccc1Nc1ncc(-c2cccs2)s1,"inconclusive: 89.1 µM [inhibitor, single point]"
16,O=C1c2oc3ccccc3c(=O)c2C(c2ccc(O)cc2)N1c1nccs1 (stereo not drawn),"inconclusive: 89.1 µM [inhibitor, single point]"
17,CCc1ccc(Cn2ncc3c(C(=O)O)cc(C)nc32)cc1,"inconclusive: 79.4 µM [inhibitor, partial curve, poor fit]"
18,CCCSc1nc(-c2ccc(OC)cc2)cc(-c2ccccc2OC)c1C#N,"inconclusive: 17.8 µM [inhibitor, full curve, poor fit]"
19,O=C(CCCc1ccccc1)Nc1ccccc1[N+](=O)[O-],"inconclusive: 28.2 µM [inhibitor, full curve, poor fit]"
20,CN1CCN(C2=C(Cl)C(=O)C(c3cnc(N4CCCCC4)s3)=C(Cl)C2=O)CC1,"inconclusive: 50.1 µM [inhibitor, partial curve, poor fit]"
21,Cc1ccc(C2CC(c3cccs3)=NN2C(=O)CCl)cc1 (stereo not drawn),inactive
22,COc1ccccc1CNC(=O)C(NS(=O)(=O)c1ccc2c(c1)OCCO2)C(C)C (stereo not drawn),"inconclusive: 31.6 µM [inhibitor, partial curve, poor fit]"
